The subject of test [1] is RAW-Dual. In words: NF-kB SEAP reporter activity, fold change vs agonist alone; cytotoxicity flag (confluency mask): not cytotoxic; higher = enhanced NF-kB activity. In short, it runs like this:
(§1)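 Reporter activity is given as fold change relative to agonist-alone wells. To measure it, 50 nL of library stock was pin-tooled onto RAW-Dual macrophages (50,000 cells/well, DMEM, 384-well plates), a PRR agonist followed 1 h later, and cells stayed at 37 °C, 5% CO2. Twenty hours on, supernatant was assayed for IRF (QuantiLuc luminescence) and NF-κB (QuantiBlue, 620 nm absorbance), and wells under 70% of agonist-control IncuCyte confluency in both mask sets were marked cytotoxic.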

The test system of test [2] is RAW-Dual. In words: NF-kB SEAP reporter activity, fold change vs agonist alone; higher = enhanced NF-kB activity. Summed up:
as §1

Test [3] relates to RAW-Dual. In words: NF-kB SEAP reporter activity, fold change vs agonist alone; cytotoxicity flag (confluency mask): cytotoxic (confluency <70% of control); higher = enhanced NF-kB activity. Summed up:
as §1

The mark [4] stands for this setting: agonist: ODN 1826 (TLR9) 0.5 ug/mL.
Where [5] appears, read: agonist: Pam2CSK4 (TLR2/6) 0.1 ug/mL.
[6] abbreviates: agonist: Pam3CSK4 (TLR2/1) 0.1 ug/mL.
Setting [7] is: library stock concentration (final ~1000-fold dilution): 10 mM, cytotoxicity flag (confluency mask): not cytotoxic, agonist: MPLA (TLR4) […].
Where [8] appears, read: library stock concentration (final ~1000-fold dilution): 10 mM, cytotoxicity flag (confluency mask): not cytotoxic, agonist: Imiquimod (TLR7) […].
Where [9] appears, read: library stock concentration (final ~1000-fold dilution): 10 mM, cytotoxicity flag (confluency mask): cytotoxic (confluency <70% of control), agonist: MPLA (TLR4) […].

The structures appear in SMILES notation. Whole data set: some 2,900 compounds, median “NF-kB SEAP reporter activity, fold change vs agonist alone” near 0.99, cut for the highest 2% near 2.6. The list shows a part of the results.

As for `CC(C)C1=CC2=CCC3C(C)(C(=O)O)CCCC3(C)C2CC1` (stereo not given) (library stock concentration (final ~1000-fold dilution): 10 mM), the “NF-kB SEAP reporter activity” value stood at 0.876 in test [1] (agonist: LPS (TLR4) 0.1 ug/mL), 0.965 in test [1] (setting [4]), 1.03 in test [1] (setting [5]) and 0.83 in test [1] (setting [6]).

`CC(C)C1=CC2=CCC3C(C)(C(=O)O)CCCC3(C)C2CC1` (stereo not given): the “NF-kB SEAP reporter activity” value in test [2] (setting [7]) was 1.07.

`CCCCC(=O)N(Cc1ccc(-c2ccccc2-c2nn[nH]n2)cc1)C(C(=O)O)C(C)C` (stereo not given): the “NF-kB SEAP reporter activity” value in test [2] (setting [8]) amounted to 0.926; in test [2] (setting [7]) it was 1.01.

For `CCCCC(=O)N(Cc1ccc(-c2ccccc2-c2nn[nH]n2)cc1)C(C(=O)O)C(C)C` (stereo not given) (library stock concentration (final ~1000-fold dilution): 10 mM), the “NF-kB SEAP reporter activity” value amounted to 1.18 in test [1] (agonist: LPS (TLR4) 0.1 ug/mL), 1.09 in test [1] (setting [4]), 1.1 in test [1] (setting [5]) and 1 in test [1] (setting [6]).

On to `Cc1ccc(C(=O)Nc2ccc(CN3CCN(C)CC3)c(C(F)(F)F)c2)cc1C#Cc1cnc2cccnn12`, for which the “NF-kB SEAP reporter activity” value in test [2] (library stock concentration (final ~1000-fold dilution): 10 mM, cytotoxicity flag (confluency mask): cytotoxic (confluency <70% of control), agonist: Imiquimod (TLR7) […]) came out at 0.226; in test [2] (setting [9]), 0.221.

For the compound `Cc1ccc(C(=O)Nc2ccc(CN3CCN(C)CC3)c(C(F)(F)F)c2)cc1C#Cc1cnc2cccnn12` (library stock concentration (final ~1000-fold dilution): 10 mM), the “NF-kB SEAP reporter activity” value in test [3] (agonist: LPS (TLR4) 0.1 ug/mL) came out at 0.182; in test [3] (setting [4]), 0.246; in test [3] (setting [5]), 0.111; in test [3] (setting [6]) it was 0.206.

Take `COc1ccccc1C(=O)Nc1cc2c(cc1N1CCCCC1)n(C)c(=O)n2C`: the “NF-kB SEAP reporter activity” value in test [2] (setting [8]) is 1.02; in test [2] (setting [7]), 1.04.

In the case of `COc1ccccc1C(=O)Nc1cc2c(cc1N1CCCCC1)n(C)c(=O)n2C` (library stock concentration (final ~1000-fold dilution): 10 mM), the “NF-kB SEAP reporter activity” value was found to be 0.938 in test [1] (agonist: LPS (TLR4) 0.1 ug/mL), 0.981 in test [1] (setting [4]), 1.04 in test [1] (setting [5]) and 1.09 in test [1] (setting [6]).

For the compound `CN1CCN(C(=O)c2ccc(-c3ccc4c(C=O)c(O)ccc4c3)s2)CC1`, the “NF-kB SEAP reporter activity” value came out at 1.08 in test [2] (setting [8]) and 1.33 in test [2] (setting [7]).

With `CN1CCN(C(=O)c2ccc(-c3ccc4c(C=O)c(O)ccc4c3)s2)CC1` (library stock concentration (final ~1000-fold dilution): 10 mM), the “NF-kB SEAP reporter activity” value in test [1] (agonist: LPS (TLR4) 0.1 ug/mL) was found to be 1.18; in test [1] (setting [4]) it was 1.27; in test [1] (setting [5]), 0.649; in test [1] (setting [6]), 0.794.

For `COc1ccc2c(Nc3cc(NC(=O)c4cccc(C(C)(C)C#N)c4)ccc3C)ncnc2c1` (library stock concentration (final ~1000-fold dilution): 10 mM), the “NF-kB SEAP reporter activity” value in test [1] (agonist: LPS (TLR4) 0.1 ug/mL) came to 1.29; in test [1] (setting [4]), 0.631; in test [1] (setting [5]) it was 0.256; in test [1] (setting [6]), 0.424.

On to `COc1ccc2c(Nc3cc(NC(=O)c4cccc(C(C)(C)C#N)c4)ccc3C)ncnc2c1`, for which the “NF-kB SEAP reporter activity” value in test [2] (setting [8]) is 0.916; in test [2] (setting [7]) it was 1.18.

Consider `O=C(c1cccc(Cl)c1F)N1CCN(Cc2cccc(Nc3nccs3)n2)CC1`, for which the “NF-kB SEAP reporter activity” value is 0.802 in test [2] (setting [8]) and 0.936 in test [2] (setting [7]).

As for `O=C(c1cccc(Cl)c1F)N1CCN(Cc2cccc(Nc3nccs3)n2)CC1` (library stock concentration (final ~1000-fold dilution): 10 mM), the “NF-kB SEAP reporter activity” value in test [1] (agonist: LPS (TLR4) 0.1 ug/mL) was 0.665; in test [1] (setting [4]) it was 0.643; in test [1] (setting [5]), 0.543; in test [1] (setting [6]) it was 0.42.

Regarding `Oc1cc(O)c2c(c1)OC(c1ccc(O)c(O)c1)C(O)C2c1c(O)cc(O)c2c1OC(c1ccc(O)c(O)c1)C(O)C2` (stereo not given), the “NF-kB SEAP reporter activity” value in test [2] (library stock concentration (final ~1000-fold dilution): 1 mM, cytotoxicity flag (confluency mask): not cytotoxic, agonist: Imiquimod (TLR7) […]) was 0.859; in test [2] (library stock concentration (final ~1000-fold dilution): 1 mM, cytotoxicity flag (confluency mask): not cytotoxic, agonist: MPLA (TLR4) […]) it was 1.21.

On to `Oc1cc(O)c2c(c1)OC(c1ccc(O)c(O)c1)C(O)C2c1c(O)cc(O)c2c1OC(c1ccc(O)c(O)c1)C(O)C2` (stereo not given) (library stock concentration (final ~1000-fold dilution): 1 mM), for which the “NF-kB SEAP reporter activity” value in test [1] (agonist: LPS (TLR4) 0.1 ug/mL) was determined as 1.44; in test [1] (setting [4]) it was 1.26; in test [1] (setting [5]), 1.13; in test [1] (setting [6]) it was 1.05.

In the case of `CCOC(=O)C=P(c1ccccc1)(c1ccccc1)c1ccccc1` (library stock concentration (final ~1000-fold dilution): 10 mM), the “NF-kB SEAP reporter activity” value in test [1] (agonist: LPS (TLR4) 0.1 ug/mL) is 0.964; in test [1] (setting [4]) it was 0.875; in test [1] (setting [5]), 0.894; in test [1] (setting [6]), 0.912.

For `CCOC(=O)C=P(c1ccccc1)(c1ccccc1)c1ccccc1`, the entries for the “NF-kB SEAP reporter activity” value in test [2] (setting [8]) and in test [2] (setting [7]) were 0.715 and 1.05, respectively.

As to `CC1OC(OC2CCC3(C)C(CCC4(C)C3C=CC35OCC6(CCC(C)(C)CC63)C(O)CC45C)C2(C)CO)C(O)C(OC2OC(CO)C(O)C(O)C2O)C1O` (stereo not given), the “NF-kB SEAP reporter activity” value in test [2] (setting [9]) stood at 0.319.

Turning to `CC1OC(OC2CCC3(C)C(CCC4(C)C3C=CC35OCC6(CCC(C)(C)CC63)C(O)CC45C)C2(C)CO)C(O)C(OC2OC(CO)C(O)C(O)C2O)C1O` (stereo not given) (library stock concentration (final ~1000-fold dilution): 10 mM), the “NF-kB SEAP reporter activity” value in test [3] (agonist: LPS (TLR4) 0.1 ug/mL) amounted to 0.221; in test [3] (setting [4]), 0.257; in test [3] (setting [5]) it was 0.0991; in test [3] (setting [6]), 0.143.

Take `COc1cccc(NC(=O)/C=C/c2ccc(Cl)cc2)c1` (library stock concentration (final ~1000-fold dilution): 10 mM): the “NF-kB SEAP reporter activity” value in test [1] (agonist: LPS (TLR4) 0.1 ug/mL) worked out at 1.18; in test [1] (setting [4]), 0.828; in test [1] (setting [5]) it was 0.682; in test [1] (setting [6]), 0.711.

For the compound `COc1cccc(NC(=O)/C=C/c2ccc(Cl)cc2)c1`, the results for the “NF-kB SEAP reporter activity” value in test [2] (setting [8]) and in test [2] (setting [7]) were 1.02 and 1.04, respectively.

For the compound `COc1cc(OC)c2c(=O)[nH]c(-c3cc(C)c(OCCO)c(C)c3)nc2c1`, the “NF-kB SEAP reporter activity” value came out at 1.27 in test [2] (setting [8]) and 1.95 in test [2] (setting [7]).

In the case of `COc1cc(OC)c2c(=O)[nH]c(-c3cc(C)c(OCCO)c(C)c3)nc2c1` (library stock concentration (final ~1000-fold dilution): 10 mM), the “NF-kB SEAP reporter activity” value is 1.69 in test [1] (agonist: LPS (TLR4) 0.1 ug/mL), 1.95 in test [1] (setting [4]), 1.24 in test [1] (setting [5]) and 1.69 in test [1] (setting [6]).

`CNCCN1CCC(OCc2ccccc2)CC1.Cl.Cl`: the “NF-kB SEAP reporter activity” value came to 1.55 in test [2] (setting [8]) and 0.921 in test [2] (setting [7]).

`CNCCN1CCC(OCc2ccccc2)CC1.Cl.Cl` (library stock concentration (final ~1000-fold dilution): 10 mM): the “NF-kB SEAP reporter activity” value in test [1] (agonist: LPS (TLR4) 0.1 ug/mL) was found to be 1.03; in test [1] (setting [4]), 1.45; in test [1] (setting [5]), 0.877; in test [1] (setting [6]), 1.53.

On to `CC(C)(Cc1ccc2ccccc2c1)NCC(O)COc1cccc(Cl)c1C#N` (stereo not given) (library stock concentration (final ~1000-fold dilution): 10 mM), for which the “NF-kB SEAP reporter activity” value in test [1] (agonist: LPS (TLR4) 0.1 ug/mL) is 0.273; in test [1] (setting [4]), 0.962; in test [1] (setting [5]), 0.164; in test [1] (setting [6]), 1.03.

With `CC(C)(Cc1ccc2ccccc2c1)NCC(O)COc1cccc(Cl)c1C#N` (stereo not given), the “NF-kB SEAP reporter activity” value in test [2] (setting [8]) is 0.896; in test [2] (setting [7]), 0.972.

`Cn1cc(-c2ccc(F)c(C(F)(F)F)c2)nc1C1CCN(c2ncnc3[nH]ncc23)CC1` (library stock concentration (final ~1000-fold dilution): 2 mM): the “NF-kB SEAP reporter activity” value in test [1] (agonist: LPS (TLR4) 0.1 ug/mL) was 1.41; in test [1] (setting [4]) it was 1.04; in test [1] (setting [5]), 1.04; in test [1] (setting [6]) it was 1.

For the compound `Cn1cc(-c2ccc(F)c(C(F)(F)F)c2)nc1C1CCN(c2ncnc3[nH]ncc23)CC1`, the “NF-kB SEAP reporter activity” value in test [2] (library stock concentration (final ~1000-fold dilution): 2 mM, cytotoxicity flag (confluency mask): not cytotoxic, agonist: Imiquimod (TLR7) […]) was 0.187; in test [2] (library stock concentration (final ~1000-fold dilution): 2 mM, cytotoxicity flag (confluency mask): not cytotoxic, agonist: MPLA (TLR4) […]), 1.05.

On to `Cc1cc(=O)oc2cc(O)ccc12` (library stock concentration (final ~1000-fold dilution): 10 mM), for which the “NF-kB SEAP reporter activity” value in test [1] (agonist: LPS (TLR4) 0.1 ug/mL) came out at 0.99; in test [1] (setting [4]), 1.06; in test [1] (setting [5]) it was 1.22; in test [1] (setting [6]) it was 1.26.

Consider `Cc1cc(=O)oc2cc(O)ccc12`, for which the “NF-kB SEAP reporter activity” value in test [2] (setting [8]) worked out at 1.04; in test [2] (setting [7]), 1.

Take `COc1cccc(-c2ccc(NC(=O)C3=C(C(=O)O)CCC3)c(F)c2)c1`: the “NF-kB SEAP reporter activity” value in test [2] (setting [8]) is 1.4; in test [2] (setting [7]) it was 0.947.

Turning to `COc1cccc(-c2ccc(NC(=O)C3=C(C(=O)O)CCC3)c(F)c2)c1` (library stock concentration (final ~1000-fold dilution): 10 mM), the “NF-kB SEAP reporter activity” value was 0.752 in test [1] (agonist: LPS (TLR4) 0.1 ug/mL), 1.37 in test [1] (setting [4]), 0.847 in test [1] (setting [5]) and 1.19 in test [1] (setting [6]).

The record behind these values is the supplement of paper PMC10037445.
